Target: T1, human TIGIT (soluble, SPR; construct not stated) (human, UniProt Q495A1 22-141, limits assumed)
T1 construct: whole entry named; also called huTIGIT
T1 sequence: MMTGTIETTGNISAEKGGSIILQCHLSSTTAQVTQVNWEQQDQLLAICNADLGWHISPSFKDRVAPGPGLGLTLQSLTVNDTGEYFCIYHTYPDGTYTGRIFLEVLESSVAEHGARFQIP
Assay: SPR

Kd: 1.5 nM | koff: 0.0015 s⁻¹ | kon: 1e+06 M⁻¹ s⁻¹
B1: 15A6 IgG1f (antibody)
heavy: QLQLQESGPGLVKPSETLSLTCTVSGGSISSSRYFWGWIRQPPGKGLEWIGYIYYRGSTYYNPSLKSRVTIAVDTSKNQFSLKLSSVTAADTAVYYCASSSAWYFDYWGQGNLVTVSSASTKGPSVFPLAPSSKSTSGGTAALGCLVKDYFPEPVTVSWNSGALTSGVHTFPAVLQSSGLYSLSSVVTVPSSSLGTQTYICNVNHKPSNTKVDKRV[skipping human IgG1 Fc]
VL: [skipping about 100 residues]
notes: kappa light chain
